# Reference: the supplement of paper PMC3334620
# Whole data set: some 33,000 sequences, median “E-score (-0.5 to 0.5)” near -0.041, cut for the highest 2% near 0.37. The list shows a part of the results.
# Target: T1, Ecm22 (UniProt Q05958)
# T1 sequence: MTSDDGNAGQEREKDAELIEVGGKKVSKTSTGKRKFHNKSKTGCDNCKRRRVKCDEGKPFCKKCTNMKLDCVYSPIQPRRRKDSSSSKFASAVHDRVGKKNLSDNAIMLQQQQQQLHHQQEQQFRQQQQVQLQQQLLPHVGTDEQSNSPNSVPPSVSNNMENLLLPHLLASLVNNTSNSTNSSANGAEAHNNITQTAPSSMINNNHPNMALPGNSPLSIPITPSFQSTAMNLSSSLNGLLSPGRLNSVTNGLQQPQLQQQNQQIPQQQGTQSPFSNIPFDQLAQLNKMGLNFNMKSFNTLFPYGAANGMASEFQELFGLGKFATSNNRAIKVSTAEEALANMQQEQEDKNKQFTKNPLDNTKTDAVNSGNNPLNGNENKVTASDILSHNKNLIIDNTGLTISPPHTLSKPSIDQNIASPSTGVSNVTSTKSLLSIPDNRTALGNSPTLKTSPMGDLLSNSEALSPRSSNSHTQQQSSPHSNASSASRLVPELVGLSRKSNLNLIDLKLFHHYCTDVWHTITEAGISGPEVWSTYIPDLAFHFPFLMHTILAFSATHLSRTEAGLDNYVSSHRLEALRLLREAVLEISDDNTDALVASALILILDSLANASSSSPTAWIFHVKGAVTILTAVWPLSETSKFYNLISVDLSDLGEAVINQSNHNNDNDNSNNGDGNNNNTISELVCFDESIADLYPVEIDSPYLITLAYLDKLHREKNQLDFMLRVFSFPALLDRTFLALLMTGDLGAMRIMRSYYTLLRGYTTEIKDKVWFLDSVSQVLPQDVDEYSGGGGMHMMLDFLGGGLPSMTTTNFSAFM
# Assay: PBM E-score (8-mer binding enrichment) (E-score (-0.5 to 0.5)); higher = stronger / more preferred TF binding; most listed sequences are background and not binding sites
# Details: protein concentration: 200 nM; construct: GST-full length
# How it was run: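 The E-score, a modified Wilcoxon-Mann-Whitney statistic, was computed by the Universal PBM Analysis Suite for every ungapped eight-base word pooled with its reverse complement. Scans behind it were normalised with masliner after bound GST-tagged yeast transcription factors were detected with fluorescent anti-GST. The proteins, at about 100-200 nM, had been applied to universal all-10-mer Agilent arrays made double-stranded by primer extension.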
row,Sequence,PBM E-score
1,CTGCACGC,-0.199
2,AAAGCTCA,-0.106
3,AGACAATC,-0.0209
4,AGTCCCGG,-0.149
5,CTTAACAA,-0.0675
6,GAAACCCA,-0.0172
7,GCGCTCAC,0.0474
8,ACAATGGG,-0.108
9,CGTCTGTA,0.0138
10,AGTATAAA,0.241
11,GAGCGGGC,-0.0404
12,ATGGGCAC,-0.0719
13,AGGATGAA,-0.0912
14,CTAGGACC,-0.182
15,AGTAGAGA,-0.05
16,CCCGCGTA,0.0524
17,CCCGACAA,0.156
18,TACCGGAA,0.0329
19,CTCGGTAC,0.295
20,CAGGCTCG,0.184
21,CTAACTAC,-0.216
22,GTCCCAAA,-0.0581
23,TCACGTGA,0.0673
24,GCGACTCA,0.0467
25,GAAAATTA,-0.0128

row,Sequence,PBM E-score
1,GGAACAAA,0.184
2,GTAGGACA,-0.069
3,CCGACGGA,0.0916
4,CATTTGAC,-0.322
5,ACGGCAAT,0.189
6,CTTGAGCA,-0.297
7,CGGAATCC,-0.0534
8,CTCGTGCA,0.0759
9,CGCGATAC,0.244
10,AATCCATA,0.0592
11,AGAATCAC,-0.125
12,CCACGTCG,0.0388
13,ACAACGGG,0.152
14,GCTTACTA,-0.087
15,ACTCACCG,-0.0985
16,CCAGGCTA,-0.199
17,CGACTAGA,0.0469
18,ACAAGAAA,-0.108
19,ACCAGGAC,-0.0501
20,AGGCGAGA,-0.144
21,AGAATGAG,-0.208
22,CGTAGGAC,0.042
23,GACACAAA,-0.0464
24,CCTTTCTA,-0.15
25,ACCCCAGG,-0.243

row,Sequence,PBM E-score
1,CTTAACGC,-0.0209
2,AGTCAGAT,-0.259
3,AACCAGCT,-0.0488
4,CTGGAACC,-0.0207
5,CGTTGACC,0.121
6,GAAGCATC,-0.125
7,CAGCTGGC,-0.163
8,CCAATGGA,-0.0624
9,ACGACGAC,0.364
10,GCTCGTCC,-0.109
11,GAACATCA,-0.048
12,CAGTGCGC,-0.23
13,ATGTGTAA,-0.124
14,AGGCTATG,-0.311
15,CGTGATTA,0.122
16,CCAGGCGC,-0.275
17,GAGTTAAC,0.00421
18,TTCCCAAA,-0.0335
19,CAACGCCA,-0.129
20,CATGCTGA,-0.125
21,CTTGACAC,-0.31
22,ATCCGGCC,0.0537
23,GCCCTATA,-0.00087
24,TAAAAAGA,-0.0977
25,ACGTGCGC,0.138

row,Sequence,PBM E-score
1,ATCATACG,0.404
2,AAGGAACG,0.458
3,ATACTGAA,-0.0116
4,AACACCTG,-0.0273
5,AGCCGCCG,-0.284
6,ATACGAGC,0.49
7,GTTCTGTA,0.0672
8,CATACTGG,-0.0994
9,ACTTCAGG,-0.235
10,AGAACATA,0.17
11,AATACTCA,0.0462
12,ACGACAGT,0.382
13,TACGCGCA,0.222
14,AGTCTGGC,-0.23
15,CGAACATC,0.28
16,GTCCCAGA,-0.0437
17,AGTGGAGA,-0.128
18,CTCACGAC,-0.0734
19,AAGGCTGG,-0.36
20,CCCAAAAG,-0.105
21,ATAGTGGC,-0.0188
22,ATAGGGGG,-0.317
23,AGCCTTAG,-0.206
24,AGGTGTGC,-0.187
25,ACATTATG,0.117

row,Sequence,PBM E-score
1,GATTGAAA,0.0283
2,CCTCAGAG,-0.243
3,CCCGTGCA,-0.0742
4,CGACGCTA,0.2
5,CTATATGC,-0.044
6,AGCCGAGG,0.125
7,AATTTGAA,0.139
8,CCGATAAG,-0.138
9,GATCTAGC,0.0954
10,CTAGTATC,0.0309
11,ACATGTTA,0.0744
12,CATAAGCA,-0.195
13,TAACACCA,0.0673
14,AACATACT,0.0945
15,GCTTATAA,-0.00159
16,ACCGCAGA,-0.232
17,TCTCGAGA,-0.0403
18,AGGTCTAT,0.0387
19,AGATCAAT,-0.086
20,ACTGGCCC,-0.0753
21,AATGTGGG,-0.217
22,CCAGGGGG,-0.264
23,CCGGGGTA,-0.134
24,GCGAACAA,0.148
25,GCGTCTCA,-0.114

row,Sequence,PBM E-score
1,AACAGGGC,-0.165
2,AAGAGACA,-0.0438
3,ACCGCCCA,-0.0354
4,CTCAAATC,-0.0263
5,CCACGGCC,-0.268
6,AACCAAAG,-0.0743
7,AGCATTCC,-0.0497
8,CAAACCTA,-0.0906
9,CAACATAG,-0.155
10,CTTTTTTA,-0.19
11,ACCTACTA,0.0006
12,TTACCGAA,0.238
13,ATAGGATC,-0.135
14,ATTATGCG,0.323
15,TGATATCA,-0.00319
16,CTATCACA,-0.0749
17,GCTTACCA,0.0496
18,ACTGTGAG,-0.105
19,GAGTAAAC,0.178
20,ATTACGTA,0.293
21,AGCTCGGG,0.0858
22,GTTAGAAC,0.19
23,AATCAGTA,-0.0193
24,GCGATGTA,0.0758
25,AATGCTTC,0.0923

row,Sequence,PBM E-score
1,AGTCTGTG,-0.124
2,GGACGTGA,-0.281
3,ACCTCTGC,-0.265
4,AGTACCAG,-0.14
5,CACTACAC,-0.0528
6,TAACCGGA,0.0721
7,CTTTGGCC,-0.0348
8,CGTTTGGA,0.366
9,CGGGCATA,0.0598
10,AAGCTGCG,-0.0563
11,TCAACCAA,-0.0924
12,AATGAGAC,-0.205
13,TGATGTAA,-0.0508
14,ACCTTGAT,-0.0399
15,GTGGTTCA,-0.0549
16,ATCCACCC,-0.122
17,TCAGTGAA,-0.0633
18,ACCTGGCG,-0.188
19,CCATGATC,-0.191
20,GGCCTAAC,0.121
21,CAACTGCC,-0.127
22,GCTAGGGA,-0.162
